Results on 80 sequences are retold here after the supplement of paper PMC10681739.

Whole data set: some 4,100 sequences, median “arbitrary fluorescence units” near 780, cut for the highest 2% near 22,000. Some of the results follow.

This test addresses T1, ETS1 (UniProt P14921).
T1 sequence: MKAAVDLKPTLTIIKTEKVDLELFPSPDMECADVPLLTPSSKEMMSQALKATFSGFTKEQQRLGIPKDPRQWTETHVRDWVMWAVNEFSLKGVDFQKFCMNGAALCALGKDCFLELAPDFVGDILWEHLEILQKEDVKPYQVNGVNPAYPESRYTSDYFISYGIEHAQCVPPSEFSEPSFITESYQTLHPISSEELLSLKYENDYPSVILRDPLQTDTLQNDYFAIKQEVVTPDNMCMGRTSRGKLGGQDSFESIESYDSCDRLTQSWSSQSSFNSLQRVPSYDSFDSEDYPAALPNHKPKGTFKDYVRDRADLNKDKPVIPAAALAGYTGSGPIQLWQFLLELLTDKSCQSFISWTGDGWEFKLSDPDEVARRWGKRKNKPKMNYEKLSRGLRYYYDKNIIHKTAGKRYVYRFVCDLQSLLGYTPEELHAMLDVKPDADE
Description: ETS1 binding intensity (PBM fluorescence), ETS1 alone (arbitrary fluorescence units); higher = stronger binding. The conditions noted are these: ETS1 concentration 1 nM; RUNX1 concentration 0 nM. The procedure: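 gcPBM on 36-bp genomic-derived probes (partner site mutated) containing one ETS1 site and no RUNX1 site. Recombinant human ETS1 (1 nM) was incubated alone or with RUNX1 (25 nM) and detected by anti-ETS1 antibody fluorescence. Values are medians over 4 replicate spots (not normalised). The probes sit in constant array flanks that are not printed.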
In turn, TACGGGAACTTCCTTTTCTTGAGGTGTAGCCGGGTC showed an ETS1 binding intensity of 4380.

TGCCGGGTCACCAGAGGCGCACGTGTTCCGGCAGGG: the ETS1 binding intensity was 338.

Take CGGCGCTGCAGGCACCGAGTAAAACGCGGAAGCGGG: the ETS1 binding intensity was 386.

TTCGCGCCCACCTGCATCGCCAGTTTTCCGGCGCCA displayed an ETS1 binding intensity of 371.

GCGAGGGTGGAAGGAAGCAGTGACAGCGCTCCTCTC: the ETS1 binding intensity came out at 461.

Sequence TGGGACCTCTAATCGGAGAGGGTGCGGAAACGCTGG yielded an ETS1 binding intensity of 360.

The sequence GCAGGTTTTGTAGGCCGCTTCCACAGGAAAACATGC had an ETS1 binding intensity of 395.

With TGCTGTTTCCTCTGCTGCCGAAGCGATTTCTTCCAC, the ETS1 binding intensity was found to be 3310.

TTTTGGGGTTCTAGAGGGGCAGGCTTCCTGATTGCA showed an ETS1 binding intensity of 576.

ACAGAGGTGCTACCCCAAGGACCGGAAGCAGAGACC: the ETS1 binding intensity was found to be 3940.

Turning to CCGGGACCGGAAGAGGGAGCCGAGGTTGCTGGAACT, the ETS1 binding intensity was found to be 13500.

Turning to ATGGCGAAGCAGGATGCCCTCAACCTACATACGGCA, the ETS1 binding intensity is 808.

In turn, CTGTGTATTTCTGGGATGCTTGAGGAAATCAAAAAG gave an ETS1 binding intensity of 585.

As for GCCCCGGATAGCGTCCTCACCATCCCCTCAGCGCCT, the ETS1 binding intensity turned out to be 433.

For GGAACAGGAAGCGGCAGAAATAGCAGCCACCGTGGC, the ETS1 binding intensity was determined as 6960.

For AGGGGAAGTGAGAATAGGGTGCCCACCCCCGAATTC, the ETS1 binding intensity worked out at 422.

For the sequence TAGGGGGGCGCGGCGAGCCCCGGCGGGAAACGAAGC, the ETS1 binding intensity came to 446.

Turning to ATCTTAGCCCTCAGCCAAAGCTCTTCCTGGTTGCTC, the ETS1 binding intensity stood at 473.

Consider AGAAGCTGCACCCGGAAATGAAACCTCCAGGACCTC, for which the ETS1 binding intensity turned out to be 4400.

In turn, AGTCGCTGTTCCCACTCCACAACAGACTCGGAAGCT yielded an ETS1 binding intensity of 426.

Sequence CCAGAGCAGGATGTTCTGCTGTCGCTAGATAAGCCC had an ETS1 binding intensity of 1940.

Regarding TGACGTCATCGCGCAGCGCCGGAAGCGGTGAGGCAC, the ETS1 binding intensity was 2220.

Sequence TGGAAGAGGGCAGGAAGTGTTGTGCTCACTCCCACC gave an ETS1 binding intensity of 2270.

For the sequence GGCGGCTGTGAGCGCAAAACCCAAAACTTCCGATGG, the ETS1 binding intensity stood at 452.

On to GGAGCCTGGCTGTAGGTGAGTGCTTCCTGAAGGGGT, for which the ETS1 binding intensity was determined as 392.

As for GCAGGAAGACTAACACAAAACCATCAAGCCACTCTG, the ETS1 binding intensity was found to be 453.

Sequence GAAGGAGCTAGCCACGGACCGGAAACCCCCGAGGTG showed an ETS1 binding intensity of 3010.

CTTGTCCCTTGTAGTTTTTTGCATTTCCTGTTCCCT yielded an ETS1 binding intensity of 2540.

TGGTTTCCGGGCTGGGGTTAGAATAGGCTACAAGGT had an ETS1 binding intensity of 10900.

Consider CTAAGAATCATCCTGTGTAACAACACCCTCAGTTAG, for which the ETS1 binding intensity is 982.

In turn, ACTTACGCGGAGCGCTAATGTGAGGAAGCCTCCCGC gave an ETS1 binding intensity of 367.

In the case of GATGCACGTCCGCGGGAGGCAAGCGCTTGCCCTGGG, the ETS1 binding intensity came out at 370.

ATGTCTTCCTGTACAGGAACTGGGTCCCAGCCCCAG had an ETS1 binding intensity of 8210.

As to CGGAGGGAAACAGCACCCCTGCCTCTTTCCTGGGCC, the ETS1 binding intensity is 382.

GGGCGCGGGCTTTCCTGTCGCCGAAGCGTGTGAGTC: the ETS1 binding intensity was 1910.

As to GAGTCCTCGCCGTAAACCCGAGGAGCAGGATGTGGA, the ETS1 binding intensity came to 414.

On to CAGGCACACATCCGGGAGCGGCCTGCGCCGCGAGGC, for which the ETS1 binding intensity was 9790.

Consider GGAGGAGACCTCGGCGTTAGCGTGACCCGGATGCGC, for which the ETS1 binding intensity stood at 395.

In turn, GCGAAGTGTGTGAGCAACGCGGCCGGATCCTGGAGT came in with an ETS1 binding intensity of 380.

Turning to TCGGGAAGTGGCATGCTGACTCACCTGTAGCTTGTC, the ETS1 binding intensity came to 366.

Turning to CAACATGGTTGTGAGGGAGTGAGGAAATGGTGATTC, the ETS1 binding intensity was 478.

The sequence CCAGAATGCAGGAAGTGCTGTGCTTTGACTTTGTTT returned an ETS1 binding intensity of 2750.

In the case of GTGTTTTCCTGGTGGCCCGGCCGTGCCTGAGCTTTC, the ETS1 binding intensity was 1360.

Sequence TGAAGTTCTGGGACGAAGCCAGGAAGTCAGCCCAGA returned an ETS1 binding intensity of 652.

Turning to ACTCCACCTACCCTCAAAACGCACTTCCTCAGAAGC, the ETS1 binding intensity was 659.

Sequence GCCTGTTTGTTCCGCCCCCGCGGCAAGCGCTGCTCG displayed an ETS1 binding intensity of 620.

TGGGCTGGGCCGGAACCTCACGGACCTCACCCAACC yielded an ETS1 binding intensity of 431.

The sequence CTGATTGGGGTTTTGATTTGCATTTCCCTGATGATT came in with an ETS1 binding intensity of 538.

GAGAGAGGCAGGAAGTGTTGTGCTTATTGTTTGAGC had an ETS1 binding intensity of 3390.

Regarding CATCAGTTTATGGCTGCCGAGTGCTTCCTGGGAATT, the ETS1 binding intensity turned out to be 544.

TGGCAAGCACACATCCACATCCACTTCCTGCTGAAC gave an ETS1 binding intensity of 4880.

In turn, CGGAGGCTCACCGTGAAGCCTCCTGGGAAATGTAGT returned an ETS1 binding intensity of 340.

The sequence AAGAACTCACATCAAAGGCTCCCAGGAAGCGCGAGC had an ETS1 binding intensity of 380.

For the sequence TTGCCGTAGCCACTTTATCCACTTCCTTTTTCACGA, the ETS1 binding intensity turned out to be 1280.

Sequence CCGAAGCCTGCGATTTCATGTGGGAGGAAGCGGCCT showed an ETS1 binding intensity of 399.

In turn, TTCTCCACTTCCTTCTTTACCTCACCTACCAGATAA had an ETS1 binding intensity of 6150.

On to GGGCTGGGGCCGAAGCGGGGCTTCCGGCCCCCCAGG, for which the ETS1 binding intensity worked out at 4720.

ATGTAAACAAGGATGTGAGTTCTCCGGCTACACTCT: the ETS1 binding intensity was 625.

In turn, AAAACGCGGAAATACGGAGGCGGCGGCCCTCGGGCA displayed an ETS1 binding intensity of 1250.

On to CTAACAGCAGGAAGTGCTTGGTGCTTTAGCACCTCA, for which the ETS1 binding intensity was found to be 3210.

With CCGAGGTATCTCAGCAGCCGCTGGGCATCCGGAGGA, the ETS1 binding intensity was 463.

GCCCTGAGGGCAGGAGAAGAGTCCGGAAATGGAAAT came in with an ETS1 binding intensity of 2200.

Turning to CACGTCCGTCTCACCTGACCCAGAGGCACCCCGAGC, the ETS1 binding intensity turned out to be 3730.

In the case of AGGGACCCGGATGTCTGGTCGGCGGCTGCTCCTCTA, the ETS1 binding intensity was found to be 2460.

TAGCCGTACGGAAATGTTTGTTGTTCTCTGCATCTA returned an ETS1 binding intensity of 528.

For TTGGGGTAGGGAAATCCACTTACCCCTTCCTCATGT, the ETS1 binding intensity came out at 377.

The sequence AAGTCCAACAATGCACTCCTCCACAGGAAGTTCCCA gave an ETS1 binding intensity of 782.

On to CCATTGGCAAGCGCGCTGCGCCAACTTCCGGGTTGT, for which the ETS1 binding intensity is 2960.

Regarding CAACGCTTGCCGAGCGCCAGCAGGAAGTGGTGGGCG, the ETS1 binding intensity came to 1120.

The sequence CAGTGCTTAGGCAGAGGAGGACATACTTCCTGTAAT displayed an ETS1 binding intensity of 2200.

Sequence CATCGAAGAGCTTCGGCACCACTTCCGAGTGGAGCA came in with an ETS1 binding intensity of 754.

Consider CAGGAGAACCTACAATGCACCGAAACTTCCGCCCCC, for which the ETS1 binding intensity came out at 1180.

In the case of AAAGCATTTCCTGCCTTGACTTAACTACAAGACAGG, the ETS1 binding intensity worked out at 25700.

In turn, CATGGAGTGTCTGGTGAACTTCCCCATCCCTCCTGG had an ETS1 binding intensity of 365.

Sequence ACCGTGGTGTTCCGCCCAATGCCTTCTGGGAGTTGT returned an ETS1 binding intensity of 448.

The sequence GACCCATTTCCTGGCTCAGGAGCCCTCAGCCCTGGG displayed an ETS1 binding intensity of 7400.

Take TGGAAGAGCCCCACGACATGTGCTTCCTGCGTGCTG: the ETS1 binding intensity was 596.

GAATGTCTGTGCTCACATACTCAGCTTCCTGTTTAT returned an ETS1 binding intensity of 1370.

As for GAGGCCGTACGCGCACCGAGCTTCCGTCCTGCGCTC, the ETS1 binding intensity is 772.

In turn, ATTTTTCCTTCCTTCTCCCGTCCCCTCAGAGTGCAA gave an ETS1 binding intensity of 1550.
